# Experimental data: the supplement of paper PMC7125110
# ± gives the standard error. This sample is rich in variants without activity.
# B1: glmS ribozyme (parent)
# chain: AUAAAAGCGCCAGAACUACAGAAAUGUAGUUGACGAGGAGGAGGUUUAUCGAAUUUUCGGCGGAUGCCUCCAAA
# Legend:
# Details in all cases: with glucosamine-6-phosphate
# glucosamine-6-phosphate [1] = variants of: B1; assay: self-cleavage kobs at 40 uM GlcN6P; higher = faster cleavage; RNA array
# Summary of the method: (§1)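 Glucosamine-6-phosphate, from 40 μM to 10 mM in HEPES/KCl/Mg(OAc)2 buffer, was flowed over sequenced MiSeq chips carrying barcoded ribozyme variants transcribed in situ by E. coli RNA polymerase. A hybridised Cy3 probe tracked the variants at 37 °C as tiles were imaged over ~14 h. kobs, kcat and KM were obtained by fitting normalised per-tile medians to exponential decays and then applying weighted Michaelis–Menten fits across concentrations.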
# glucosamine-6-phosphate [2] = variants of: B1; assay: self-cleavage kobs at 640 uM GlcN6P; higher = faster cleavage; RNA array
# Summary of the method: as §1
# glucosamine-6-phosphate [3] = variants of: B1; assay: self-cleavage kobs at 10000 uM GlcN6P; higher = faster cleavage; RNA array
# Summary of the method: as §1
# glucosamine-6-phosphate [4] = variants of: B1; assay: self-cleavage kobs at 160 uM GlcN6P; higher = faster cleavage; RNA array
# Summary of the method: as §1
# glucosamine-6-phosphate [5] = variants of: B1; assay: self-cleavage kobs at 2500 uM GlcN6P; higher = faster cleavage; RNA array
# Summary of the method: as §1
Variant,self-cleavage kobs at 40 uM GlcN6P (glucosamine-6-phosphate [1]) [s⁻¹],self-cleavage kobs at 640 uM GlcN6P (glucosamine-6-phosphate [2]) [s⁻¹],self-cleavage kobs at 10000 uM GlcN6P (glucosamine-6-phosphate [3]) [s⁻¹],self-cleavage kobs at 160 uM GlcN6P (glucosamine-6-phosphate [4]) [s⁻¹],self-cleavage kobs at 2500 uM GlcN6P (glucosamine-6-phosphate [5]) [s⁻¹]
C11G A36U,< 1e-05,< 1e-05,< 1e-05,–,–
G9U U57C C61G,< 1e-05,–,< 1e-05,–,–
C11G A14G G32A A48G U56G A64G,< 1e-05,–,< 1e-05,–,–
C11G A14U,< 1e-05,–,–,< 1e-05,–
C10A U46G U47A G59C,< 1e-05,–,–,–,–
C10A G13U G37U G60A U65A,< 1e-05,< 1e-05,< 1e-05,–,–
C11A A12G U30C,< 1e-05,–,–,–,–
C10G C70U,< 1e-05,–,–,–,–
C10G U49C,< 1e-05,–,< 1e-05,< 1e-05,< 1e-05
C10G G32A,< 1e-05,–,–,–,–
C10G G32U,< 1e-05,–,–,–,–
C10U A33C C34G G44U C68G,< 1e-05,–,< 1e-05,–,–
C10G G62A,< 1e-05,< 1e-05,< 1e-05,< 1e-05,–
C10U G37C G44U U65C,< 1e-05,< 1e-05,–,< 1e-05,< 1e-05
C10G A14U G29U,< 1e-05,–,< 1e-05,–,–
G9U G63C C67U,< 1e-05,–,< 1e-05,–,< 1e-05
C11A G41U,< 1e-05,< 1e-05,–,< 1e-05,< 1e-05
C11G A15U A48U,< 1e-05,–,–,–,–
C10U C16U G38A A39G,< 1e-05,–,–,–,–
C10G A39G A52C U55G C61U G63C,< 1e-05,–,–,–,–
C10U G41A U54A C68A,< 1e-05,–,< 1e-05,–,–
C10U G44U C50A,< 1e-05,–,–,–,–

Variant,self-cleavage kobs at 40 uM GlcN6P (glucosamine-6-phosphate [1]) [s⁻¹],self-cleavage kobs at 640 uM GlcN6P (glucosamine-6-phosphate [2]) [s⁻¹],self-cleavage kobs at 10000 uM GlcN6P (glucosamine-6-phosphate [3]) [s⁻¹],self-cleavage kobs at 160 uM GlcN6P (glucosamine-6-phosphate [4]) [s⁻¹],self-cleavage kobs at 2500 uM GlcN6P (glucosamine-6-phosphate [5]) [s⁻¹]
C10U A14G A52U G60U,< 1e-05,–,< 1e-05,–,< 1e-05
C10A G38U G44A C61G,< 1e-05,–,–,–,–
C11A G44C C68G,< 1e-05,–,< 1e-05,–,–
C10U C11U U49C,< 1e-05,< 1e-05,–,–,–
C10U G29U,< 1e-05,–,< 1e-05,< 1e-05,< 1e-05
C10A A33C A64C,< 1e-05,–,< 1e-05,–,< 1e-05
C10G A12U G63C,< 1e-05,–,–,–,–
C11A A15C U47C,< 1e-05,–,–,–,–
G9U G37C U49C C67A,< 1e-05,–,< 1e-05,–,< 1e-05
C10A U30A C61U G66U,< 1e-05,–,–,–,–
C10A G29C,< 1e-05,< 1e-05,< 1e-05,< 1e-05,–
G9U C68U,< 1e-05,< 1e-05,< 1e-05,< 1e-05,< 1e-05
C11G A15U C34G A39U A48G,< 1e-05,–,–,–,–
C10A G13C A52G,< 1e-05,–,–,–,–
C10G A15C A36G G41U A48U,< 1e-05,–,< 1e-05,–,< 1e-05
C10A G38C G60U C71U,< 1e-05,–,–,–,–
C10U G40A C67A,< 1e-05,–,< 1e-05,–,–
G9U G13C,< 1e-05,< 1e-05,< 1e-05,< 1e-05,–
C11A G13A C16A G29C G41C G44C,< 1e-05,–,–,–,–
C11G A12C G38A,< 1e-05,–,–,–,–
C10A G32C G41A,< 1e-05,–,–,–,–
C10A G13U A36G U46G G59A C70G,< 1e-05,–,–,–,–

Variant,self-cleavage kobs at 40 uM GlcN6P (glucosamine-6-phosphate [1]) [s⁻¹],self-cleavage kobs at 640 uM GlcN6P (glucosamine-6-phosphate [2]) [s⁻¹],self-cleavage kobs at 10000 uM GlcN6P (glucosamine-6-phosphate [3]) [s⁻¹],self-cleavage kobs at 160 uM GlcN6P (glucosamine-6-phosphate [4]) [s⁻¹],self-cleavage kobs at 2500 uM GlcN6P (glucosamine-6-phosphate [5]) [s⁻¹]
C10G G41U C61G G66U,< 1e-05,–,–,< 1e-05,–
C10G G32C U57A,< 1e-05,–,–,–,–
C10U C16G,< 1e-05,< 1e-05,–,–,–
C10U U31G A64G,< 1e-05,–,–,–,–
C11A U31C G40U A42G U65C,< 1e-05,–,–,–,–
G9U U31G A36C C71G,< 1e-05,–,< 1e-05,–,–
C10G U30C U69C,< 1e-05,–,< 1e-05,–,–
C10A A14U C70A,5.36e-05 ± 2.5e-05,–,3.49e-05 ± 1.4e-05,–,–
C11A A64C,< 1e-05,< 1e-05,< 1e-05,< 1e-05,< 1e-05
C10U A12G G60A C67G C68A,< 1e-05,–,< 1e-05,–,–
C10U A39C C70G,< 1e-05,–,–,–,–
C11A G38U,< 1e-05,< 1e-05,< 1e-05,< 1e-05,< 1e-05
C10U G29C G37A A53C,< 1e-05,–,–,–,–
G9U G40C,< 1e-05,< 1e-05,< 1e-05,< 1e-05,–
C10U U55A C70U,< 1e-05,–,–,< 1e-05,–
C10A U30G U31G G40A G51U,< 1e-05,–,< 1e-05,–,–
G9U A42U,< 1e-05,< 1e-05,–,< 1e-05,< 1e-05
C10G A52U G59C,< 1e-05,< 1e-05,–,< 1e-05,< 1e-05
C10A U47C,< 1e-05,–,< 1e-05,< 1e-05,–
C11A C34G G43C G51U G60C,< 1e-05,< 1e-05,–,–,–
G9U A15U U65G,< 1e-05,< 1e-05,< 1e-05,–,–
C11A G59A G60A A64U,< 1e-05,–,–,–,–

Variant,self-cleavage kobs at 40 uM GlcN6P (glucosamine-6-phosphate [1]) [s⁻¹],self-cleavage kobs at 640 uM GlcN6P (glucosamine-6-phosphate [2]) [s⁻¹],self-cleavage kobs at 10000 uM GlcN6P (glucosamine-6-phosphate [3]) [s⁻¹],self-cleavage kobs at 160 uM GlcN6P (glucosamine-6-phosphate [4]) [s⁻¹],self-cleavage kobs at 2500 uM GlcN6P (glucosamine-6-phosphate [5]) [s⁻¹]
C10U A52U,< 1e-05,–,–,–,–
C10U A52G G66U,< 1e-05,–,< 1e-05,–,–
C10U U31G A53C U54G U55A,< 1e-05,–,–,–,–
C10G C34U,< 1e-05,< 1e-05,< 1e-05,< 1e-05,< 1e-05
C10G C34A,< 1e-05,< 1e-05,< 1e-05,< 1e-05,< 1e-05
C10G C71U,< 1e-05,< 1e-05,< 1e-05,< 1e-05,–
C10U U57G,< 1e-05,–,–,–,–
C10G C16G G35C A39C,< 1e-05,–,< 1e-05,–,–
C11G A14G G63U C70A,9.38e-05 ± 2.9e-05,–,–,–,–
C10A A33G,< 1e-05,< 1e-05,< 1e-05,< 1e-05,< 1e-05
C10U G51A,< 1e-05,–,< 1e-05,–,–
C10U G60U,< 1e-05,< 1e-05,< 1e-05,< 1e-05,–
C11A G44U C68A U69A,< 1e-05,< 1e-05,< 1e-05,–,< 1e-05
G9U A64C,< 1e-05,< 1e-05,< 1e-05,< 1e-05,–
C10U C34U,< 1e-05,–,< 1e-05,< 1e-05,< 1e-05
C10U G35C A42U,< 1e-05,< 1e-05,–,–,–
C10U U31C G38U G51U U55G,< 1e-05,–,–,–,–
C10U U45C,< 1e-05,< 1e-05,< 1e-05,< 1e-05,< 1e-05
C11A A42G,< 1e-05,–,–,–,–
C10U C50U C68G,< 1e-05,–,–,–,–
C10G G13U A14U,< 1e-05,–,–,–,–
C10G G63U,< 1e-05,< 1e-05,–,< 1e-05,< 1e-05

Variant,self-cleavage kobs at 40 uM GlcN6P (glucosamine-6-phosphate [1]) [s⁻¹],self-cleavage kobs at 640 uM GlcN6P (glucosamine-6-phosphate [2]) [s⁻¹],self-cleavage kobs at 10000 uM GlcN6P (glucosamine-6-phosphate [3]) [s⁻¹],self-cleavage kobs at 160 uM GlcN6P (glucosamine-6-phosphate [4]) [s⁻¹],self-cleavage kobs at 2500 uM GlcN6P (glucosamine-6-phosphate [5]) [s⁻¹]
C10A G41U,< 1e-05,< 1e-05,< 1e-05,< 1e-05,< 1e-05
C10U C11A G43A U45G U46G,< 1e-05,< 1e-05,< 1e-05,–,–
C11A G59U,0.000273 ± 2.8e-05,–,–,–,–
G9U U45G C50G,< 1e-05,< 1e-05,–,< 1e-05,–
C10A G40U U54C,< 1e-05,–,< 1e-05,–,–
C10U G62A,< 1e-05,< 1e-05,< 1e-05,–,–
C11A U31A G37U U56G,< 1e-05,–,–,–,< 1e-05
C10A G37A,< 1e-05,< 1e-05,< 1e-05,–,< 1e-05
C10U G38A C71U,< 1e-05,–,< 1e-05,–,–
C10A G35A G41A U55G A64U,< 1e-05,–,–,–,–
C11A C34U,< 1e-05,< 1e-05,–,–,–
C11A G29A G35C A53G,< 1e-05,–,< 1e-05,–,–
C10A A12C U31C A36U,< 1e-05,–,–,–,–
C10U C50G A52U,< 1e-05,< 1e-05,–,< 1e-05,–
G9U G13A C16A G38U,< 1e-05,–,–,–,–
C10G U30A,< 1e-05,< 1e-05,–,< 1e-05,–
C10U U46A U49A U65C C68G,< 1e-05,–,< 1e-05,–,–
C10G C61U C71A,< 1e-05,–,–,–,–
